{"source": "PubChem BioAssay AID492947", "about": "(National Center for Advancing Translational Sciences (NCATS), 2010)", "note": "Values joined by “and” are separate entries in the source; they are usually repeats but may differ in a detail not shown here. Equal values may be shown once. About 80 (0.02%) of roughly 330,000 compounds were called active. Inconclusive means that the source gave no clear call. Such entries were picked first, then a sample of the others. Calls come from the whole dose curve; as a rule, active = well fitted activation curve with a large enough effect; inconclusive = small, poorly fitted or top-dose-only effect; inactive = flat fitted curve, though single readings scatter. Potencies of inconclusive entries are doubtful fits and often do not repeat. Potency is the fitted concentration of half-maximal effect; tags give direction and shape of the fitted curve."}
{"target": "Beta-2 adrenergic receptor (Homo sapiens) (UniProt P07550)", "sequence (P07550 whole entry, looked up)": "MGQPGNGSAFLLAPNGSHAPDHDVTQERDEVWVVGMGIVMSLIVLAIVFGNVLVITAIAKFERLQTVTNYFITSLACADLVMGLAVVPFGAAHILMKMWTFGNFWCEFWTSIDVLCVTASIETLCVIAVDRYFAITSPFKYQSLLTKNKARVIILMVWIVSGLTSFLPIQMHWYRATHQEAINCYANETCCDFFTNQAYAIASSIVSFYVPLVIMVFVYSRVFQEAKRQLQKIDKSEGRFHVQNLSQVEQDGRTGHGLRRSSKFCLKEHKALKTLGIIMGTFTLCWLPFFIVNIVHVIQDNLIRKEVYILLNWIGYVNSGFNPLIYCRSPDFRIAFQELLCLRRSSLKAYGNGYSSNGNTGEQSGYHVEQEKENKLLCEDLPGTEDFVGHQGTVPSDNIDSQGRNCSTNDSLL", "assay": "qHTS assay of beta-arrestin-biased ligands of beta2-adrenergic receptor; note: nearly all actives have a fitted effect of over 65% in size;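 for activation: 0% = DMSO controls and full agonism = EC100 isoproterenol or metaproterenol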", "conditions": "beta-arrestin recruitment to beta2AR, cell-based reporter; series mostly up to 46.1 µM; activation: at the top concentration", "outline": "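Agonism was measured as beta-arrestin recruitment to recombinant beta2-AR, releasing tTA to drive luciferase. Cells were exposed for 18 hr at 37 degrees C to a series up to 46 microM. %Activity from corrected luminescence gave concentration-response curves.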"}
{"smiles": "Cc1ccccc1NC(=O)c1cc(C(=O)c2cc(Cl)ccc2O)cn(-c2ccccc2C)c1=O", "Potency": "inconclusive: 23.1 µM [rising, single point]"}
{"smiles": "COc1ccccc1-c1cc(C(F)(F)F)nc(S(=O)(=O)CCCC(=O)N2CCOCC2)n1", "Potency": "inconclusive: 7.31 µM [rising, single point]"}
{"smiles": "O=C(CSc1ccc(-c2nc3ccccc3[nH]2)cn1)Nc1ccc(S(=O)(=O)NC2CC2)cc1", "Potency": "inconclusive: 29.1 µM [rising, single point]"}
{"smiles": "OC(COc1ccc(F)cc1)CN1CCN(c2ccccc2F)CC1", "note": "(configuration not stated)", "activation": "inactive: 0.26%"}
{"smiles": "CCNc1nc(NCC)nc(-n2nc(C)cc2C)n1", "Potency": "active: 7.94 µM"}
{"smiles": "O=C(NC1CCCCC1)C(c1ccc2ncccc2c1)N(Cc1cccs1)C(=O)c1cccs1", "note": "(configuration not stated)", "activation": "inactive: -0.591%"}
{"smiles": "Cc1cc(C)nc(NC2=NCCN2C(=O)NC2CCCCC2)n1", "activation": "inactive: -0.664%"}
{"smiles": "COc1cccc2sc(Nc3nc(-c4ccccn4)cs3)nc12", "Potency": "inconclusive: 3.55 µM [rising, single point]"}
{"smiles": "COCCCN=C1NN=C(c2cc(C)n(-c3ccccc3)c2C)CS1", "Potency": "inconclusive: 13 µM [activator, partial curve]"}
{"smiles": "CCOC(=O)C1(CCOc2ccccc2)CCN(Cc2cc(OC)ccc2OC)CC1", "activation": "inactive: -0.925%"}
{"smiles": "Cc1ccccc1NC(=S)Nc1ccccn1", "Potency": "inconclusive: 31.6 µM [rising, single point]"}
{"smiles": "COc1cccc(C2CC3(CC(C)(C)NC(=S)N3)Oc3cc(O)ccc32)c1", "note": "(configuration not stated)", "Potency": "inconclusive: 29.1 µM [rising, single point]"}
{"smiles": "Cc1cccc(NS(=O)(=O)c2ccc(C)c(C(=O)NCCCN3CCOCC3)c2)c1", "Potency": "inconclusive: 0.58 µM [rising, single point]"}
{"smiles": "COc1ccc(NC(=O)Cc2ccc(C)cc2)cc1S(=O)(=O)N1CCCCC1", "activation": "inactive: -0.186%"}
{"smiles": "COc1cccc(OCC(=O)NNC(=O)C(=O)Nc2ccc(OC)cc2OC)c1", "Potency": "inconclusive: 0.562 µM [rising, single point]"}
{"smiles": "Cc1ccc(C)c(OCC(=O)NCC(C)C)c1C", "Potency": "inconclusive: 6.51 µM [rising, single point]"}
{"smiles": "Cc1cccc(N(C(=O)CNC(=O)c2cccs2)C(C(=O)NC2CCCC2)c2ccncc2)c1", "note": "(configuration not stated)", "Potency": "inconclusive: 31.6 µM [rising, single point]"}
{"smiles": "Fc1ccccc1/C=N/n1cc(-c2ccccc2)[nH]c1=S", "Potency": "inconclusive: 35.5 µM [rising, single point]"}
{"smiles": "Cc1nc2ccc(NC(=O)CS(=O)(=O)c3ccc(F)cc3)cc2s1", "Potency": "inconclusive: 23.1 µM [activator, partial curve]"}
{"smiles": "COc1cc(/C=C2\\SC(=N)N(c3ccc4c(c3)OCO4)C2=O)cc(OC)c1O", "Potency": "inconclusive: 0.231 µM [rising, full curve, poor fit]"}
{"smiles": "CC(C)(C)c1ccc(OCCCN2CCCC2)cc1", "activation": "inactive: -0.173%"}
{"smiles": "C=CCn1nc([N+](=O)[O-])nc1Sc1cccc2cccnc12", "Potency": "inconclusive: 2.91 µM [rising, partial curve, poor fit]"}
{"smiles": "COc1cc(NC(=O)CN2CCN(S(=O)(=O)c3ccc(C(C)C)cc3)CC2)cc(OC)c1", "activation": "inactive: -0.0631%"}
{"smiles": "COc1ccc(NC(=O)c2ccc(-n3cccn3)c([N+](=O)[O-])c2)cc1", "activation": "inactive: 0.323%"}
{"smiles": "CC(CCc1ccccc1)NCC#N", "note": "(configuration not stated)", "activation": "inactive: 0.201%"}
{"smiles": "O=C(N/N=C/c1cccc2ccccc12)c1ccncc1", "activation": "inactive: -0.402%"}
{"smiles": "C[C@H](CO)N1C[C@H](C)[C@@H](CN(C)Cc2ccc(-c3ccccc3)cc2)Oc2c(NC(=O)Cc3ccccc3)cccc2C1=O", "Potency": "inconclusive: 2.31 µM [activator, full curve]"}
{"smiles": "COC(=O)/C(=C/c1ccco1)NC(=O)c1ccco1", "Potency": "inconclusive: 0.58 µM [rising, single point]"}
{"smiles": "O=C(CCCOc1ccccc1)N1CCN(S(=O)(=O)c2ccc(Cl)cc2)CC1", "activation": "inactive: 0.176%"}
{"smiles": "CCOC(=O)c1c(-c2ccco2)csc1NC(=O)COC(=O)c1cnccn1", "Potency": "inconclusive: 16.4 µM [activator, partial curve]"}
{"smiles": "CCN(CC)S(=O)(=O)c1ccc(N=Nc2c(C)[nH]n(C(N)=S)c2=O)cc1", "Potency": "inconclusive: 29.1 µM [rising, single point]"}
{"smiles": "CCn1nnnc1SCC(=O)Nc1nc2ccc(OC)cc2s1", "Potency": "inconclusive: 6.51 µM [rising, single point]"}
{"smiles": "COc1cc2c(cc1OC)C(c1cc3ccccc3oc1=O)=NC(C)(C)C2", "Potency": "inconclusive: 29.1 µM [rising, single point]"}
{"smiles": "S=C(Nc1ccccn1)c1ccccn1", "Potency": "inconclusive: 31.6 µM [rising, single point] and inconclusive: 18.4 µM [rising, single point]"}
{"smiles": "O=C(OCC1CC(c2ccccc2)=NO1)c1ccco1", "note": "(configuration not stated)", "Potency": "inconclusive: 3.55 µM [rising, single point]"}
{"smiles": "c1ccc(SCc2nc(-c3cccnc3)no2)cc1", "Potency": "inconclusive: 6.51 µM [rising, single point]"}
{"smiles": "CN(Cc1cccs1)C(=O)c1ccc(Cl)c(S(=O)(=O)N2CCCCCC2)c1", "activation": "inactive: -0.201%"}
{"smiles": "Cc1ccc2c(Cl)cc(Cl)c(OCC(=O)NC3CCS(=O)(=O)C3)c2n1", "note": "(configuration not stated)", "activation": "inactive: -0.0681%"}
{"smiles": "CC(=O)c1ccc(N2CCN(C(=O)C3CCN(S(=O)(=O)Cc4ccccc4)CC3)CC2)cc1", "activation": "inactive: -0.332%"}
{"smiles": "CC1=NN(C(N)=S)C(=O)C1N=Nc1cccc(Cl)c1", "note": "(configuration not stated)", "Potency": "inconclusive: 5.62 µM [rising, single point]"}
{"smiles": "CCCNC(C)C(=O)Nc1ccccc1C", "note": "(configuration not stated)", "Potency": "active: 3.16 µM"}
{"smiles": "CCCCCCCCN1C(=O)N(C)C(N(O)C(=O)NC)C1(C)C", "note": "(configuration not stated)", "Potency": "inconclusive: 22.4 µM [rising, single point]"}
{"smiles": "NC(=S)N=Nc1c(O)n(CCCl)c2ccc(Cl)cc12", "Potency": "inconclusive: 5.62 µM [rising, single point]"}
{"smiles": "CC1CCCN(C(=O)COc2ccc(Nc3ccccc3)cc2)C1", "note": "(configuration not stated)", "activation": "inactive: -0.958%"}
{"smiles": "Cc1ccc(/C=C/C(=O)N2CCN(c3ncccn3)CC2)o1", "Potency": "inconclusive: 29.1 µM [rising, single point]"}
{"smiles": "Cc1cc(C)n(-c2nc(-n3nc(C)cc3C)c3c4c(sc3n2)COC(C)(C)C4)n1", "Potency": "inconclusive: 28.2 µM [rising, single point]"}
{"smiles": "O=C(NC(=S)N1CCCCCC1)c1ccccc1Cl", "Potency": "inconclusive: 35.5 µM [rising, single point]"}
